The other results are listed elsewhere or left out.
How the values were obtained:
HSkMC = human skeletal muscle cells; assay: cytotoxicity call (relative viability < 0.9); conditions: 10 µM
HepG2 = assay: cytotoxicity call (relative viability < 0.9); conditions: 10 µM
S. aureus RN4220 = assay: growth inhibition call (relative growth <= 0.2); conditions: 50 µM

Row | Compound | cytotoxicity call (HSkMC) | cytotoxicity call (HepG2) | growth inhibition call (S. aureus RN4220)
1 | C[C@@H]1CN([C@H](C)CO)C(=O)c2cc(NC(=O)c3ccncc3)ccc2O[C@@H]1CN(C)Cc1ccc(Oc2ccccc2)cc1 | inactive | inactive | inactive
2 | C[C@]1(C(=O)NCC(F)(F)F)c2ccccc2C(=O)N(Cc2cc(F)cc(C(F)(F)F)c2)[C@H]1c1ccc(CO)cc1 | inactive | inactive | inactive
3 | C=c1[nH]/c(=C\c2ccc(F)cc2)c(=O)o1 | inactive | inactive | inactive
4 | C[C@@H]1CCCCO[C@H](CN(C)Cc2ccc(C(F)(F)F)cc2)[C@@H](C)CN([C@@H](C)CO)C(=O)c2cc(NS(=O)(=O)c3cn(C)cn3)ccc2O1 | inactive | inactive | inactive
5 | C[C@@H]1CN([C@H](C)CO)C(=O)c2cc(NS(=O)(=O)c3ccc(Cl)cc3)ccc2O[C@@H](C)CCCCO[C@H]1CN(C)S(=O)(=O)c1cccs1 | inactive | inactive | inactive
6 | O=C1[O][Bi]([OH])[O]c2ccccc21 | inactive | inactive | inactive
7 | C[C@H](CO)N1C[C@H](C)[C@H](CN(C)S(=O)(=O)c2cn(C)cn2)Oc2ncc(C#Cc3cccc(F)c3)cc2C1=O | inactive | inactive | inactive
8 | Nc1ccc(O)c(C(=O)O)c1 | inactive | inactive | inactive
9 | C[C@H](CO)N1C[C@H](C)[C@H](CN(C)C(=O)Nc2ccccc2)Oc2ccc(NC(=O)Nc3ccc(C(F)(F)F)cc3)cc2C1=O | active | active | inactive
10 | C[C@@H]1CN([C@H](C)CO)C(=O)Cc2cc(N(C)C)ccc2O[C@H]1CN(C)S(=O)(=O)c1ccc(F)cc1 | inactive | inactive | inactive
